# In the supplement of paper PMC8728848:
# This is one part of the list.
# Columns and labels:
# Test in all cases: glycan array binding signal (z-score within array); higher = stronger binding
# Details in all cases: glycan notation: IUPAC condensed, linker removed
# Fuc(a1-2)Gal = target: Fuc(a1-2)Gal
# Method in brief: (§1)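 The binding signal is a Z-score computed within each array. Data were drawn from 3228 arrays in the Consortium for Functional Glycomics database, restricted to those with a known protein sequence. Scores were averaged over arrays of the same protein sequence at different concentrations or buffers, and over linkers, and negative values can be taken as non-binding.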
# Fuc(a1-2)Gal(b1-3)GalNAc = target: Fuc(a1-2)Gal(b1-3)GalNAc
# Method in brief: as §1
# [1] = target: Fuc(a1-2)Gal(b1-3)GalNAc(a1-3)[Fuc(a1-2)]Gal(b1-4)Glc
# Method in brief: as §1
# [2] = target: Fuc(a1-2)Gal(b1-3)GalNAc(a1-3)[Fuc(a1-2)]Gal(b1-4)GlcNAc
# Method in brief: as §1
# [3] = target: Fuc(a1-2)Gal(b1-3)GalNAc(b1-3)Gal
# Method in brief: as §1
# [4] = target: Fuc(a1-2)Gal(b1-3)GalNAc(b1-3)Gal(a1-4)Gal(b1-4)Glc
# Method in brief: as §1
# [5] = target: Fuc(a1-2)Gal(b1-3)GalNAc(b1-4)[Neu5Ac(a2-3)]Gal(b1-4)Glc
# Method in brief: as §1
# Fuc(a1-2)Gal(b1-3)GlcNAc = target: Fuc(a1-2)Gal(b1-3)GlcNAc
# Method in brief: as §1
# [6] = target: Fuc(a1-2)Gal(b1-3)GlcNAc(b1-2)Man(a1-3)[Fuc(a1-2)Gal(b1-3)GlcNAc(b1-2)Man(a1-6)]Man(b1-4)GlcNAc(b1-4)GlcNAc
# Method in brief: as §1
# [7] = target: Fuc(a1-2)Gal(b1-3)GlcNAc(b1-2)Man(a1-3)[Fuc(a1-2)Gal(b1-3)GlcNAc(b1-2)Man(a1-6)]Man(b1-4)GlcNAc(b1-4)[Fuc(a1-6)]GlcNAc
# Method in brief: as §1
# [8] = target: Fuc(a1-2)Gal(b1-3)GlcNAc(b1-3)Gal(b1-4)Glc
# Method in brief: as §1
# [9] = target: Fuc(a1-2)Gal(b1-3)GlcNAc(b1-3)GalNAc
# Method in brief: as §1
# [10] = target: Fuc(a1-2)Gal(b1-3)GlcNAc(b1-3)[Fuc(a1-2)Gal(b1-3)GlcNAc(b1-6)]GalNAc
# Method in brief: as §1
# [11] = target: Fuc(a1-2)Gal(b1-3)GlcNAc(b1-3)[Gal(b1-4)GlcNAc(b1-6)]Gal(b1-4)Glc
# Method in brief: as §1
# [12] = target: Fuc(a1-2)Gal(b1-3)GlcNAc(b1-3)[Neu5Ac(a2-6)Gal(b1-4)GlcNAc(b1-6)]Gal(b1-4)Glc
# Method in brief: as §1
# [13] = target: Fuc(a1-2)Gal(b1-3)GlcNAc6S
# Method in brief: as §1
# [14] = target: Fuc(a1-2)Gal(b1-3)[Fuc(a1-4)]GlcNAc
# Method in brief: as §1
# [15] = target: Fuc(a1-2)Gal(b1-3)[Fuc(a1-4)]GlcNAc(b1-2)Man(a1-3)[Fuc(a1-2)Gal(b1-3)[Fuc(a1-4)]GlcNAc(b1-2)Man(a1-3)]Man(b1-4)GlcNAc(b1-4)GlcNAc
# Method in brief: as §1
# [16] = target: Fuc(a1-2)Gal(b1-3)[Fuc(a1-4)]GlcNAc(b1-2)Man(a1-3)[Fuc(a1-2)Gal(b1-3)[Fuc(a1-4)]GlcNAc(b1-2)Man(a1-6)]Man(b1-4)GlcNAc(b1-4)[Fuc(a1-6)]GlcNAc(b1-4)[Fuc(a1-6)]GlcNAc
# Method in brief: as §1
# [17] = target: Fuc(a1-2)Gal(b1-3)[Fuc(a1-4)]GlcNAc(b1-3)[Fuc(a1-3)[Gal(b1-4)]GlcNAc(b1-6)]Gal(b1-4)Glc
# Method in brief: as §1
# [18] = target: Fuc(a1-2)Gal(b1-3)[Fuc(a1-4)]GlcNAc(b1-3)[Gal(b1-4)GlcNAc(b1-6)]Gal(b1-4)Glc
# Method in brief: as §1
# [19] = target: Fuc(a1-2)Gal(b1-4)Fuc(a1-3)]GlcNAc(b1-2)Man(a1-3)[Fuc(a1-2)Gal(b1-4)[Fuc(a1-3)]GlcNAc(b1-2)Man(a1-6)]Man(b1-4)GlcNAc(b1-4)GlcNAc
# Method in brief: as §1
# Fuc(a1-2)Gal(b1-4)Glc = target: Fuc(a1-2)Gal(b1-4)Glc
# Method in brief: as §1
# Fuc(a1-2)Gal(b1-4)Glc6S = target: Fuc(a1-2)Gal(b1-4)Glc6S
# Method in brief: as §1
# Fuc(a1-2)Gal(b1-4)GlcNAc = target: Fuc(a1-2)Gal(b1-4)GlcNAc
# Method in brief: as §1
# [20] = target: Fuc(a1-2)Gal(b1-4)GlcNAc(b1-2)Man
# Method in brief: as §1
# [21] = target: Fuc(a1-2)Gal(b1-4)GlcNAc(b1-2)Man(a1-3)[Fuc(a1-2)Gal(b1-4)GlcNAc(b1-2)Man(a1-6)]Man(b1-4)GlcNAc(b1-4)GlcNAc
# Method in brief: as §1
# [22] = target: Fuc(a1-2)Gal(b1-4)GlcNAc(b1-2)Man(a1-3)[Fuc(a1-2)Gal(b1-4)GlcNAc(b1-2)Man(a1-6)]Man(b1-4)GlcNAc(b1-4)[Fuc(a1-6)]GlcNAc
# Method in brief: as §1
# [23] = target: Fuc(a1-2)Gal(b1-4)GlcNAc(b1-2)[Fuc(a1-2)Gal(b1-4)GlcNAc(b1-4)]Man(a1-3)[Fuc(a1-2)Gal(b1-4)GlcNAc(b1-2)Man(a1-6)]Man(b1-4)GlcNAc(b1-4)GlcNAc
# Method in brief: as §1
# [24] = target: Fuc(a1-2)Gal(b1-4)GlcNAc(b1-3)Gal(b1-4)GlcNAc
# Method in brief: as §1
binder,measurement,setting,value
"CBM13 2a (Mycobacterium tuberculosum), P64849 (protein) DGPVQLKSRLGDVCLDAPSGSWFSPLVINPCNGTDFQRWNLTDDRQVESVAFPGECVNIGNALWARLQPCVNWISQHWTVQPDGLVKSDLDACLTVLGGPDPGTWVSTRWCDPNAPDQQWDSVPLEHHHHHH",glycan array binding signal (z-score),Fuc(a1-2)Gal,-0.264
same,glycan array binding signal (z-score),Fuc(a1-2)Gal(b1-3)GalNAc,-0.217
same,glycan array binding signal (z-score),[1],-0.047
same,glycan array binding signal (z-score),[2],-0.177
same,glycan array binding signal (z-score),[3],-0.308
same,glycan array binding signal (z-score),[4],-0.34
same,glycan array binding signal (z-score),[5],-0.189
same,glycan array binding signal (z-score),Fuc(a1-2)Gal(b1-3)GlcNAc,-0.27
same,glycan array binding signal (z-score),[6],0.181
same,glycan array binding signal (z-score),[7],-0.067
same,glycan array binding signal (z-score),[8],-0.265
same,glycan array binding signal (z-score),[9],-0.307
same,glycan array binding signal (z-score),[10],-0.162
same,glycan array binding signal (z-score),[11],-0.299
same,glycan array binding signal (z-score),[12],0.016
same,glycan array binding signal (z-score),[13],0
same,glycan array binding signal (z-score),[14],-0.206
same,glycan array binding signal (z-score),[15],0.318
same,glycan array binding signal (z-score),[16],-0.061
same,glycan array binding signal (z-score),[17],-0.282
same,glycan array binding signal (z-score),[18],-0.247
same,glycan array binding signal (z-score),[19],0.139
same,glycan array binding signal (z-score),Fuc(a1-2)Gal(b1-4)Glc,-0.079
same,glycan array binding signal (z-score),Fuc(a1-2)Gal(b1-4)Glc6S,-0.081
same,glycan array binding signal (z-score),Fuc(a1-2)Gal(b1-4)GlcNAc,-0.294
same,glycan array binding signal (z-score),[20],-0.076
same,glycan array binding signal (z-score),[21],-0.022
same,glycan array binding signal (z-score),[22],0.023
same,glycan array binding signal (z-score),[23],0.472
same,glycan array binding signal (z-score),[24],-0.362
